Experimental data taken from PubChem BioAssay AID760 (NMMLSC, 2007).
In all, about 190,000 compounds went through this assay and about 360 (0.19%) were called active. This list was built around the results that the source calls inconclusive (neither active nor inactive); the mix of calls is not that of the screen.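 The calls were made as follows: active = GTP binding activity at least 20 points away from 100%, either lowered or raised; inconclusive = signal likely due to the compound's own green fluorescence; inactive = the rest.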

What follows are compounds tested against Ras-related protein Rab-2A (Canis lupus familiaris) (UniProt P61105) (assay: Rab2 wt fluorescent GTP binding changes, either direction – biochemical, dog, bead-based flow cytometry, multiplex, primary screen (AID 760;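 also: 0% = beads with excess unlabeled GTP and 100% = no-compound control corrected for plate trend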)). Conditions: GST-Rab2 wt beads, Bodipy-GTP binding, at 10 µM.
`O=C(C1CC1)N1CCc2cc(Br)cc(S(=O)(=O)NCCCN3CCCC3)c21` was tested, and the GTP binding activity was inactive: 108%. `COc1ccc(-c2nc(NC(=O)Cn3cnnn3)sc2C)cc1` was tested, and the GTP binding activity was inconclusive: 96%. With `CCN(CC)S(=O)(=O)c1cc([N+](=O)[O-])ccc1N=Nc1c(O)[nH]c2ccccc12` the GTP binding activity was inconclusive: 163%. For `N#C/C(=C/c1ccc(N2CCCCCC2)o1)c1ccc(Cl)cc1`, the GTP binding activity was inconclusive: 123%. In the case of `Cc1ccc(C)n1-c1ccc(C(=O)NN=C2CCCC2)cc1`, the GTP binding activity is reported as inconclusive: 116%. `CCc1ccccc1OCC(=O)Nc1nc(-c2cccnc2)cs1` was tested, and the GTP binding activity was inactive: 93%. `COC(=O)[C@H](C)NC(=O)Nc1ccc(Oc2ccccc2)cc1` was tested, and the GTP binding activity was inconclusive: 110%. With `Cc1ccc(C(=O)N(Cc2ccccc2)C(C)(C)C)cc1C` the GTP binding activity was inactive: 100%. In the case of `COc1ccc(C2CC(c3cccs3)=NN2C(=O)CSc2nncs2)cc1OC` (stereo unspecified), the GTP binding activity is reported as inconclusive: 92%. `CCOC(=O)N1CCN(Cc2cn[nH]c2-c2cc3ccccc3o2)CC1` was tested, and the GTP binding activity was inconclusive: 47%. `CCOCCCn1c(=S)[nH]c2cc(C(=O)NCCCN(CC)CC)ccc2c1=O` was tested, and the GTP binding activity was inactive: 98%. With `CCC(C)NS(=O)(=O)c1ccc(NC(=O)c2ccc([N+](=O)[O-])cc2Cl)cc1` (stereo unspecified) the GTP binding activity was inactive: 98%. In the case of `Cc1csc(NC(=O)c2cc(-c3ccncc3)nc3ccccc23)n1`, the GTP binding activity is reported as inconclusive: 97%. With `O=C(/C=C/c1ccccc1)NC1CCCc2ccccc21` (stereo unspecified) the GTP binding activity was inactive: 95%. With `Cc1cc(C)n(CCCNC(=O)c2ccc(S(=O)(=O)NCc3ccco3)cc2)n1` the GTP binding activity was inconclusive: 102%. For `Cc1cc(C(=O)NCC(=O)OCC(=O)NCCc2ccccc2)ccc1[N+](=O)[O-]`, the GTP binding activity was inactive: 95%. In the case of `CCC(C)N1C(=O)/C(=C/c2c(NCCCOC(C)C)nc3c(C)cccn3c2=O)SC1=S` (stereo unspecified), the GTP binding activity is reported as inconclusive: 241%. `COCCNc1ncnc2nc[nH]c12` was tested, and the GTP binding activity was inconclusive: 105%. `Cn1c(=S)n(/N=C/c2ccc3c(c2)OCO3)c2ccccc21` was tested, and the GTP binding activity was inconclusive: 102%. In the case of `COc1ccccc1CN1CCNC(=O)C1CC(=O)NCc1c(C)n[nH]c1C` (stereo unspecified), the GTP binding activity is reported as inconclusive: 102%. `Cc1onc(-c2ccccc2Cl)c1C(=O)Nc1sc2c(c1C(N)=O)CCC(C)C2` (stereo unspecified) was tested, and the GTP binding activity was inactive: 101%. `COc1ccc(OCCSc2nc(N)cc(N)n2)cc1` was tested, and the GTP binding activity was inconclusive: 91%. For `Cc1ccc(NC(=O)CN2C(=O)NC3(CCc4ccccc43)C2=O)cc1Cl` (stereo unspecified), the GTP binding activity was inconclusive: 103%. In the case of `O=c1[nH]c2ccc(Cl)cc2c(O)c1Cc1ccccc1`, the GTP binding activity is reported as inconclusive: 87%. With `Cc1nnc(SCc2nc3ccccc3s2)n1-c1ccccc1` the GTP binding activity was inconclusive: 106%. In the case of `COc1ccc(C2=Nn3c(nnc3-c3ccccn3)SC2)cc1OC`, the GTP binding activity is reported as inconclusive: 76%.
